{
  "source": "PubChem BioAssay (Tox21)",
  "key": {"[1]": {"molecular_target": "Bile acid receptor (Homo sapiens) (UniProt Q96RI1)", "sequence (Q96RI1 whole entry, looked up)": "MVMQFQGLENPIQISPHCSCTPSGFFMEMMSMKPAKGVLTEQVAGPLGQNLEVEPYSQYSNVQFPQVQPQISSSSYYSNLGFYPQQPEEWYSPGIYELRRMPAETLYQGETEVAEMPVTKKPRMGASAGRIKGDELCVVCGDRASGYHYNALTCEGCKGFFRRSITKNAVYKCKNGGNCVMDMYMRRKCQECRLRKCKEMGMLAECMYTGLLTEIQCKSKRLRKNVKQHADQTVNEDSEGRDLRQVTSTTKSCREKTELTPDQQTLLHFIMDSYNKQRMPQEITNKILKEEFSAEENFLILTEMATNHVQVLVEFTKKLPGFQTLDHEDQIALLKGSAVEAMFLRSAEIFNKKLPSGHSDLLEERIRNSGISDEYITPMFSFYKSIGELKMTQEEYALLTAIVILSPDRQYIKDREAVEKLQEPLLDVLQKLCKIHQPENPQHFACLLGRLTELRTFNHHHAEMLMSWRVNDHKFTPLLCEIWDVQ", "assay": "qHTS assay to identify small molecule agonists of the farnesoid-X-receptor (FXR) signaling pathway (AID 743220; active = well fitted activation curve with a large enough effect in the signal ratio in the repeat runs, not every such curve was filed as active; inconclusive = weak or mixed curves, or effect the other way; the % refers to the signal ratio; also: % is scaled to controls: 0 for no effect and ±100 for the full control effect)", "conditions": "HEK293T FXR-UAS-bla, beta-lactamase FRET ratio, 16 h; activation: at 62.6 µM (top of the series) unless noted", "summary_of_the_method": "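FXR-UAS-bla HEK 293T cells carrying a UAS-driven beta-lactamase reporter were plated for 5 h at 37C/5% CO2, then exposed to DMSO-dissolved Tox21 10K compounds for 16 h at 37C. A LiveBLAzer B/G FRET substrate was loaded for 2 h at room temperature before fluorescence reading.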"}, "[2]": {"molecular_target": "Vitamin D3 receptor (Homo sapiens) (UniProt P11473)", "sequence (P11473 whole entry, looked up)": "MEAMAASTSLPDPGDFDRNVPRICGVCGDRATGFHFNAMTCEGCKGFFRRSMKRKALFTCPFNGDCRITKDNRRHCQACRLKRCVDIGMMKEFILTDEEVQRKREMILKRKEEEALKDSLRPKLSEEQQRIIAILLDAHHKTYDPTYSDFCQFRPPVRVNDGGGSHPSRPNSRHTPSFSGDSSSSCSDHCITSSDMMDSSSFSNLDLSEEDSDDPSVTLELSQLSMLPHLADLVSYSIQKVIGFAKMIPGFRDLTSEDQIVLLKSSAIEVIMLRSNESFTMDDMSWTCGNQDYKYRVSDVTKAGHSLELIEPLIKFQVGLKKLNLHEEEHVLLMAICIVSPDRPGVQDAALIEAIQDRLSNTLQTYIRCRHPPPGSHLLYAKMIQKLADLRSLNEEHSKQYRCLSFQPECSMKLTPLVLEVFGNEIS", "assay": "qHTS assay to identify small molecule agonists of the vitamin D receptor (VDR) signaling pathway (AID 743222; calls by dose curve; also: potency is read from the fitted curve at half-maximal effect; as to activation: % is scaled to controls: 0 for no effect and ±100 for the full control effect)", "conditions": "HEK293T VDR-UAS-bla, beta-lactamase FRET ratio, 16 h; activation: at 63.5 µM (top of the series) unless noted", "summary_of_the_method": "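Fluorescence from cleaved LiveBLAzer B/G FRET substrate served as readout. VDR-bla cells had been treated 16 h at 37C with test compounds in DMSO, following a 4 h settling period, and substrate was loaded for 2 h at RT.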"}, "[3]": {"assay": "qHTS assay to identify small molecule antagonists of the vitamin D receptor (VDR) signaling pathway - cell viability counter screen (AID 743225); also: nearly all actives have a fitted effect of over 50% in size; also: potency is read from the fitted curve at half-maximal effect; as to viability change, negative = cytotoxic: % is scaled to controls: 0 for no effect and ±100 for the full control effect", "conditions": "VDR-bla HEK293T viability, CellTiter-Glo luminescence, 16 h; viability change, negative = cytotoxic: at 61 µM (top of the series)", "summary_of_the_method": "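Cytotoxicity toward the VDR-bla HEK 293T line was scored by ATP-based CellTiter-Glo luminescence, read in the wells already used for the beta-lactamase readout after 16 h compound treatment under 3 nM 1-alpha,25-dihydroxyvitamin D3 stimulation.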"}, "[4]": {"assay": "qHTS assay to identify small molecule agonists of the NFkB signaling pathway (AID 1159509; active = well fitted curve in the direction sought with a large enough effect in the signal ratio in the repeat runs, not every such curve was filed as active; inconclusive = weak or mixed curves, or a change in a side signal; inactive = no such curve, though single readings can be large or run the other way; the % refers to the signal ratio; also: potency is read from the fitted curve at half-maximal effect)", "conditions": "NFkB-bla ME-180 cells, beta-lactamase FRET ratio, 5 h; activation: at 61 µM (top of the series) unless noted", "summary_of_the_method": "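Pathway activation was measured in ME-180 cells stably expressing beta-lactamase under NF-kB response element control. Substrate cleavage was read as the 460/530 nm emission shift after 5 hr compound incubation.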"}, "[5]": {"assay": "qHTS assay to identify small molecule agonists of the NFkB signaling pathway - cell viability counter screen (AID 1159515; calls by dose curve; also: potency is read from the fitted curve at half-maximal effect; nearly all actives have a fitted effect of over 55% in size)", "summary_of_the_method": "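Parallel cytotoxicity counter screen in ME-180 cells carrying an NFkB-response-element beta-lactamase reporter, 2,000 cells/well. Compound exposure lasted 5 hr at 37 C, 5% CO2. Cell viability was quantified by CellTiter-Glo luminescence.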"}, "[6]": {"assay": "qHTS assay to identify small molecule agonists of the endoplasmic reticulum stress response signaling pathway (AID 1159516; active = well fitted activation curve with a large enough effect in the signal ratio in the repeat runs, not every such curve was filed as active; inconclusive = weak or mixed curves, or effect the other way; the % refers to the signal ratio; also: potency is read from the fitted curve at half-maximal effect)", "conditions": "ESRE-bla HeLa, ER stress beta-lactamase reporter, 5 h; activation: at 61 µM (top of the series) unless noted", "summary_of_the_method": "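Using a HeLa line with an ESRE-driven beta-lactamase gene, agonist activity was measured by FRET substrate fluorescence (460 and 530 nm emission) after cells were treated with compounds for 5 hr at 37 C and 5% CO2.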"}, "[7]": {"assay": "qHTS assay to identify small molecule agonists of the farnesoid-X-receptor (FXR) signaling pathway - cell viability counter screen (AID 743218); also: potency is read from the fitted curve at half-maximal effect; nearly all actives have a fitted effect of over 45% in size", "conditions": "FXR-bla HEK293T viability, CellTiter-Glo luminescence, 16 h; viability change, negative = cytotoxic: at 62.6 µM (top of the series) unless noted", "summary_of_the_method": "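Viability of FXR-bla HEK 293T cells is measured by ATP-based CellTiter-Glo luminescence following 16 h compound treatment at 37 C and a prior 2 h room-temperature beta-lactamase substrate step.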"}, "[8]": {"assay": "qHTS assay to identify small molecule antagonists of the farnesoid-X-receptor (FXR) signaling pathway - cell viability counter screen (AID 743221; active = well fitted cell-killing curve with a large enough effect in the repeat runs, not every such curve was filed as active; inconclusive = weak or mixed curves, or effect the other way; inactive = no such curve, though single readings can be large or run the other way; also: potency is read from the fitted curve at half-maximal effect; nearly all actives have a fitted effect of over 50% in size)", "conditions": "FXR-bla HEK293T viability, CellTiter-Glo luminescence, 16 h; activity change, negative = cytotoxicity: at 62.6 µM (top of the series) unless noted", "summary_of_the_method": "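CellTiter-Glo, 30 min RT, luminescence; same wells as the LiveBLAzer FRET read. Cells: FXR-UAS-bla HEK 293T. Treatment: compound with chenodeoxycholic acid 50 uM final, 16 h at 37 C.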"}, "[9]": {"assay": "qHTS assay to identify small molecule agonists of the vitamin D receptor (VDR) signaling pathway - cell viability counter screen (AID 743224); also: potency is read from the fitted curve at half-maximal effect; nearly all actives have a fitted effect of over 50% in size", "summary_of_the_method": "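Compounds were pin-transferred onto VDR-bla cells plated 4 h earlier; following 16 h incubation at 37C, cell viability was quantified by CellTiter-Glo luminescence after 30 min at room temperature.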"}, "[10]": {"molecular_target": "Vitamin D3 receptor (Homo sapiens) (UniProt P11473)", "assay": "qHTS assay to identify small molecule antagonists of the vitamin D receptor (VDR) signaling pathway (AID 743223; active = well fitted inhibition curve with a large enough effect in the signal ratio in the repeat runs, not every such curve was filed as active; inconclusive = weak or mixed curves, or effect the other way; inactive = no such curve, though single readings can be large or run the other way; the % refers to the signal ratio; also: potency is read from the fitted curve at half-maximal effect; as to activity change, negative = inhibition: % is scaled to controls: 0 for no effect and ±100 for the full control effect)", "conditions": "VDR-UAS-bla HEK293T, beta-lactamase FRET ratio, 16 h; activity change, negative = inhibition: at 61 µM (top of the series) unless noted", "summary_of_the_method": "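After VDR-bla cells are plated and left 4 h at 37C, DMSO-dissolved compounds and 3 nM (final) calcitriol agonist are added. Incubation continues 16 h at 37C; FRET beta-lactamase substrate then develops 2 h at room temperature.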"}},
  "note": "Several values for one entry are separate records, joined by “and”; a condition that tells them apart may be missing. Equal values may be shown once. The inconclusive results got no clear call from the source; some entries with a clear call stand among them for comparison. For some of these results: Potencies of inconclusive entries are doubtful fits and often do not repeat. Some compounds were tested as several samples or in several runs, with calls that do not always agree. Activity calls are given as the source filed them. Unless noted, calls follow the shape of the dose curve; as a rule, active = well fitted cell-killing curve with a large enough effect in the repeat runs; inconclusive = weak or mixed curves, or effect the other way; inactive = no such curve, though single readings can be large or run the other way. Tags tell the direction and shape of the fitted curve or compound fluorescence and quenching.",
  "data": [
    {"smiles": "C=CC1(C)OC(=O)N(c2cc(Cl)cc(Cl)c2)C1=O", "note": "(stereo not given)", "values": [
      {"measurement": "Potency", "setting": "[1]", "value": "inactive"},
      {"measurement": "Potency", "setting": "[2]", "value": "inactive"},
      {"measurement": "viability change, negative = cytotoxic", "setting": "[3]", "value": "inconclusive: 1.93%"},
      {"measurement": "Potency", "setting": "[4]", "value": "inconclusive: 54.6 µM"},
      {"measurement": "Potency", "setting": "[5]", "value": "inconclusive: 61.3 µM [cytotoxic, single point]"},
      {"measurement": "Potency", "setting": "[6]", "value": "inconclusive: 54.6 µM [single point]"}
    ]},
    {"smiles": "ClC1=C(Cl)C2(Cl)C3C(Cl)C=CC3C1(Cl)C2(Cl)Cl", "note": "(stereo not given)", "values": [
      {"measurement": "Potency", "setting": "[7]", "value": "inconclusive: 61.9 µM [cytotoxic, single point] and inconclusive: 61.6 µM [cytotoxic, single point]"},
      {"measurement": "Potency", "setting": "[8]", "value": "inconclusive: 55.2 µM [falling, single point]"},
      {"measurement": "Potency", "setting": "[9]", "value": "inconclusive: 55.2 µM [cytotoxic, single point] and active: 43.6 µM"},
      {"measurement": "Potency", "setting": "[4]", "value": "inconclusive: 55.2 µM and inconclusive: 54.9 µM [single point]"},
      {"measurement": "Potency", "setting": "[5]", "value": "inconclusive: 61.9 µM [cytotoxic, single point] and inconclusive: 61.6 µM [cytotoxic, single point]"},
      {"measurement": "Potency", "setting": "[6]", "value": "inconclusive: 55.2 µM [cytotoxic] and inconclusive: 54.9 µM [cytotoxic]"}
    ]},
    {"smiles": "ClC1=C(Cl)C2(Cl)C(CBr)CC1(Cl)C2(Cl)Cl", "note": "(stereo not given)", "values": [
      {"measurement": "Potency", "setting": "[7]", "value": "active: 54.9 µM"},
      {"measurement": "Potency", "setting": "[10]", "value": "inconclusive: 8.71 µM [fluorescent, full curve]"},
      {"measurement": "Potency", "setting": "[9]", "value": "active: 34.7 µM"},
      {"measurement": "Potency", "setting": "[3]", "value": "inconclusive: 49 µM [cytotoxic, partial curve, poor fit]"},
      {"measurement": "Potency", "setting": "[4]", "value": "inconclusive: 54.9 µM [single point]"},
      {"measurement": "Potency", "setting": "[5]", "value": "inconclusive: 61.6 µM [cytotoxic]"},
      {"measurement": "Potency", "setting": "[6]", "value": "inconclusive: 54.9 µM [cytotoxic, single point]"}
    ]},
    {"smiles": "C[C@]12C=CC3=C4CCC(=O)C=C4CC[C@H]3[C@@H]1CC[C@@H]2O", "values": [
      {"measurement": "activation", "setting": "[1]", "value": "inconclusive: 5.85%"},
      {"measurement": "Potency", "setting": "[4]", "value": "inconclusive: 2.17 µM [rising, partial curve, poor fit] and inconclusive: 34.7 µM [rising, partial curve, poor fit]"},
      {"measurement": "Potency", "setting": "[5]", "value": "inconclusive: 54.6 µM [cytotoxic, partial curve, poor fit]"},
      {"measurement": "Potency", "setting": "[6]", "value": "inconclusive: 52.2 µM [activator]"}
    ]},
    {"smiles": "O=C(Nc1ccc(Br)cc1)c1cc(Br)cc(Br)c1O", "values": [
      {"measurement": "Potency", "setting": "[7]", "value": "active: 3.45 µM and active: 1.55 µM and active: 7.5 µM"},
      {"measurement": "Potency", "setting": "[8]", "value": "active: 9.74 µM and active: 2.45 µM and active: 13.3 µM"},
      {"measurement": "Potency", "setting": "[10]", "value": "inconclusive: 21.9 µM"},
      {"measurement": "activity change, negative = inhibition", "setting": "[10]", "value": "inconclusive: -34.5%"},
      {"measurement": "Potency", "setting": "[3]", "value": "inconclusive: 6.14 µM [cytotoxic, full curve] and active: 1.95 µM and inconclusive: 6.01 µM [cytotoxic, full curve]"},
      {"measurement": "Potency", "setting": "[4]", "value": "inconclusive: 15.5 µM [rising, partial curve, poor fit]"},
      {"measurement": "Potency", "setting": "[5]", "value": "active: 13.8 µM and active: 49 µM and inconclusive: 26.8 µM [cytotoxic, single point]"},
      {"measurement": "activation", "setting": "[6]", "value": "inconclusive: 7.84%"}
    ]},
    {"smiles": "COC12CC[C@@]3(C[C@@H]1C(C)(O)C(C)(C)C)[C@H]1Cc4ccc(O)c5c4[C@@]3(CCN1CC1CC1)[C@H]2O5", "note": "(stereo not given in full)", "values": [
      {"measurement": "Potency", "setting": "[7]", "value": "inconclusive: 68.1 µM [cytotoxic]"},
      {"measurement": "Potency", "setting": "[8]", "value": "inconclusive: 68.1 µM [falling, single point]"},
      {"measurement": "Potency", "setting": "[2]", "value": "inconclusive: 27.1 µM [inhibitor, single point]"},
      {"measurement": "activity change, negative = inhibition", "setting": "[10]", "value": "inconclusive: -36.5%"},
      {"measurement": "Potency", "setting": "[9]", "value": "inconclusive: 68.1 µM [cytotoxic, single point]"},
      {"measurement": "Potency", "setting": "[4]", "value": "inconclusive: 43.4 µM [falling, partial curve]"},
      {"measurement": "Potency", "setting": "[5]", "value": "active: 54.6 µM"},
      {"measurement": "Potency", "setting": "[6]", "value": "inconclusive: 48.6 µM [cytotoxic, partial curve]"}
    ]},
    {"smiles": "CCOC(=O)CC(SP(=S)(OC)OC)C(=O)OCC", "note": "(stereo not given)", "values": [
      {"measurement": "Potency", "setting": "[7]", "value": "inconclusive: 2.75 µM"},
      {"measurement": "Potency", "setting": "[8]", "value": "inconclusive: 61.6 µM [rising, partial curve, poor fit]"},
      {"measurement": "Potency", "setting": "[2]", "value": "inconclusive: 54.9 µM [rising, single point]"},
      {"measurement": "Potency", "setting": "[10]", "value": "inconclusive: 19.5 µM [activator, partial curve, poor fit] and inactive"},
      {"measurement": "Potency", "setting": "[4]", "value": "inconclusive: 10.7 µM [falling, partial curve, poor fit]"},
      {"measurement": "Potency", "setting": "[5]", "value": "inconclusive: 54.9 µM [rising, partial curve, poor fit]"},
      {"measurement": "Potency", "setting": "[6]", "value": "inconclusive: 1.95 µM [falling, partial curve, poor fit]"}
    ]},
    {"smiles": "CC(C)C1CCC(Cc2ccc(Cl)cc2)C1(O)Cn1cncn1", "note": "(stereo not given)", "values": [
      {"measurement": "Potency", "setting": "[7]", "value": "inconclusive: 61.1 µM [cytotoxic, single point]"},
      {"measurement": "Potency", "setting": "[8]", "value": "inconclusive: 48.5 µM [falling, single point]"},
      {"measurement": "Potency", "setting": "[2]", "value": "inconclusive: 27.3 µM [rising, full curve]"},
      {"measurement": "Potency", "setting": "[10]", "value": "inconclusive: 54.4 µM"},
      {"measurement": "Potency", "setting": "[9]", "value": "inconclusive: 54.4 µM [cytotoxic, single point]"},
      {"measurement": "Potency", "setting": "[3]", "value": "active: 48.5 µM"},
      {"measurement": "Potency", "setting": "[4]", "value": "inconclusive: 61.1 µM"},
      {"measurement": "Potency", "setting": "[5]", "value": "active: 54.4 µM"},
      {"measurement": "Potency", "setting": "[6]", "value": "inconclusive: 61.1 µM [falling, single point]"}
    ]}
  ]
}
